# Measured values published in article PMC4242493.
# The other results are listed elsewhere or left out. The list includes weakly bound sequences.
# Target: MaxL homodimer (UniProt P61244)
# Assay: universal protein-binding microarray (PBM)
# Conditions: PBS-based mixture, 10 nM His-tagged protein dimer, 2% milk, 200 ng/uL BSA, 50 ng/uL salmon testes DNA, 0.02% TX-100; detection with Alexa 488 anti-His …; high values mean tight binding; most listed sequences are background and not binding sites; double strand, one strand shown
# Chain of UniProt P61244 (P61244 whole entry): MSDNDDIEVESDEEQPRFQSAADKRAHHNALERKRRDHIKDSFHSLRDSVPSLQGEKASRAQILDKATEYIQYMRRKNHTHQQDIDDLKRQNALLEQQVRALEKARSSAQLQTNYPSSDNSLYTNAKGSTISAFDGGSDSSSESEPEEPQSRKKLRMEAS
row,Sequence,binding signal (normalized occupancy)
1,AGTACTTG,0.0732
2,ACCCACTC,0.0722
3,CACCATAC,0.0807
4,AATCACCA,0.077
5,ACAGTACG,0.0729
6,AGGTTATC,0.078
7,AAGGTTTC,0.0742
8,CTATTTTC,0.0775
9,AGACAATC,0.0771
10,CTACTTAA,0.0713
11,GATTGGAA,0.0707
12,AGCTATCC,0.0729
13,GGCCGAGA,0.0674
14,GTCGAGCA,0.0704
15,ACGCCGAT,0.0771
16,AGTCCTGC,0.0718
17,ACGGGCAG,0.0759
18,AAGGATCT,0.0771
19,GCACAAAC,0.0731
20,GACAAAAA,0.074
21,CGAAAAAG,0.0732
22,GGACGTTA,0.0789
23,CCGGGAGG,0.0699
24,AATCGGAC,0.0716
25,CTGGCTAC,0.0703

row,Sequence,binding signal (normalized occupancy)
1,CTTTATCC,0.071
2,CGCAAAGC,0.0658
3,ACTGTGAG,0.0805
4,AGTTGGTC,0.0747
5,ACGGTTAT,0.0819
6,GGGTAACA,0.0825
7,AACAGGGG,0.0829
8,AGAGCCCA,0.0706
9,ACGGGTAA,0.0784
10,ACGGCCCA,0.0728
11,ATGCCTCC,0.0785
12,CTGGTACA,0.0794
13,CCCCGCAA,0.0739
14,AATGAACA,0.0796
15,TGAGCGAA,0.0709
16,ACGCGCAA,0.0715
17,ATGAGGGC,0.0956
18,CAACCTGC,0.076
19,AAGTCCTG,0.0704
20,AAATTGAC,0.0744
21,AGCAGCGA,0.0704
22,GGCAACTA,0.072
23,GTGATTCA,0.0783
24,CTTGCATC,0.072
25,CTTCTTTA,0.075

row,Sequence,binding signal (normalized occupancy)
1,GAAGGCTC,0.0674
2,CTCTCTAC,0.0734
3,CGTATGCA,0.0828
4,ACCTTGGC,0.0701
5,CTTATGAC,0.0773
6,TTACCAAA,0.0699
7,AAGCTGGG,0.0713
8,ATCCATAG,0.0811
9,ACCTTACC,0.0707
10,CGGCACCG,0.0648
11,CACGATGA,0.0862
12,ATTGCATA,0.0797
13,AGACCTAA,0.0738
14,ACCTCTAT,0.0776
15,GAGGAGTA,0.0781
16,AATACGGG,0.0747
17,ACTGGCCA,0.0733
18,ATGTTGTC,0.0895
19,AGATACAG,0.0792
20,CGCGTGGA,0.147
21,GGCGACCA,0.0707
22,AAATATCT,0.074
23,ATAAGAGG,0.073
24,ACAGACCC,0.0739
25,CGCCGGCG,0.0622

row,Sequence,binding signal (normalized occupancy)
1,CTGTAACA,0.0851
2,GGGGCCAA,0.072
3,ATAAGCGC,0.0758
4,ACAATCTA,0.0768
5,AATTGAGG,0.0713
6,ATAAAGAT,0.0762
7,AGAACTGA,0.0716
8,CTCGAGGA,0.0818
9,ACCCAAGG,0.0705
10,AAATCAGC,0.075
11,CGTCGTAA,0.0759
12,AGGTCGCG,0.0706
13,TAACAATA,0.0763
14,ACAGAGGC,0.0742
15,AGTATGCA,0.0786
16,GTTCCAGA,0.0714
17,CACACCTG,0.0932
18,TAGTCGCA,0.0765
19,CGGCCGAG,0.0689
20,CCCGCCGA,0.0663
21,GCATACTA,0.0759
22,CGCCACCG,0.0733
23,TATAACAA,0.0788
24,CCACCACC,0.0813
25,CCTGTGAG,0.0762

row,Sequence,binding signal (normalized occupancy)
1,CGATAGGC,0.0779
2,ATTTAGTG,0.0751
3,ACCCAATC,0.0754
4,AACCATTA,0.0784
5,GCCATTAC,0.0743
6,CAAAGGTC,0.0669
7,GCGAACGC,0.0739
8,ACGAACGA,0.0771
9,GCAGCCGC,0.0651
10,CGAATACA,0.0824
11,CCTTTTGA,0.0749
12,ACCTTATA,0.0748
13,AAAGCAGT,0.0719
14,CCACACGC,0.0953
15,AAGAGCGG,0.0675
16,CAGATGCC,0.0772
17,ATTACCTC,0.0797
18,CGAAGCCA,0.0704
19,CGTTGCGC,0.0693
20,ATCTCCGG,0.0698
21,ATATGTGC,0.0897
22,GGACTGCA,0.0692
23,AGGAAAGG,0.0743
24,AAAGTCTA,0.0703
25,AATAAGGG,0.0746

row,Sequence,binding signal (normalized occupancy)
1,AATCTGTG,0.0758
2,CACTGCCG,0.0673
3,CAGTATAA,0.0746
4,GCGGACCC,0.0723
5,AACGGACT,0.0712
6,ATTAATTG,0.0748
7,AGGGCCAT,0.0744
8,AGGAACCT,0.0728
9,ATAAGTAC,0.0776
10,GTAGCGCA,0.0713
11,CAATTAAC,0.0756
12,CAAGTGGA,0.0784
13,CAGCAGAA,0.0668
14,CGGAACGC,0.0739
15,ATCCGGAT,0.0748
16,TAGTGGAA,0.073
17,CTTAATAA,0.0703
18,ACGGAGAC,0.074
19,GAAGAGAA,0.0751
20,GCCTCGCC,0.0721
21,CACTCCCC,0.0834
22,CAGTATAG,0.0734
23,AGATCGTA,0.0753
24,ACCTGAAA,0.0726
25,AAAACCAT,0.0801

row,Sequence,binding signal (normalized occupancy)
1,TCATCAGA,0.0811
2,AGCCGAGC,0.0645
3,CGGCACCA,0.0775
4,ACCTATAT,0.0805
5,TATCGTAA,0.079
6,GACCCTGC,0.0706
7,CACGAGCG,0.082
8,ATCCCAGA,0.0711
9,ACGCTTAG,0.0757
10,AGCGGCTA,0.0685
11,ACTCGATG,0.0758
12,CGTCGGCC,0.0672
13,GTGTAGCA,0.0826
14,TATGCGGA,0.0786
15,TACTTGAA,0.079
16,ATCGGGGC,0.0732
17,ACTAAAGG,0.0687
18,CCGCGCGC,0.0828
19,CTCAAGTA,0.0761
20,CTGGCCAC,0.0837
21,AGTGAGGA,0.0746
22,AATGGGTA,0.0788
